# Reference: publication PMC4336329 (PLoS ONE, 2015)
# Hit rate of the full screen: of about 310,000 compounds, about 14,000 (4.5%) showed an effect of 50% or more. Effects have a minus sign here. The list shows a part of the results.
# Target: human ether-à-go-go-related gene (hERG) potassium channel (human, UniProt Q12809)
# Experiment: primary screen, population patch clamp on CHO cells stably expressing hERG
# 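Also: peak tail current of the secondary pulse compared with the same well before compound.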
# human ether-à-go-go-related gene (hERG) potassium channel, sequence (Q12809 whole entry, looked up): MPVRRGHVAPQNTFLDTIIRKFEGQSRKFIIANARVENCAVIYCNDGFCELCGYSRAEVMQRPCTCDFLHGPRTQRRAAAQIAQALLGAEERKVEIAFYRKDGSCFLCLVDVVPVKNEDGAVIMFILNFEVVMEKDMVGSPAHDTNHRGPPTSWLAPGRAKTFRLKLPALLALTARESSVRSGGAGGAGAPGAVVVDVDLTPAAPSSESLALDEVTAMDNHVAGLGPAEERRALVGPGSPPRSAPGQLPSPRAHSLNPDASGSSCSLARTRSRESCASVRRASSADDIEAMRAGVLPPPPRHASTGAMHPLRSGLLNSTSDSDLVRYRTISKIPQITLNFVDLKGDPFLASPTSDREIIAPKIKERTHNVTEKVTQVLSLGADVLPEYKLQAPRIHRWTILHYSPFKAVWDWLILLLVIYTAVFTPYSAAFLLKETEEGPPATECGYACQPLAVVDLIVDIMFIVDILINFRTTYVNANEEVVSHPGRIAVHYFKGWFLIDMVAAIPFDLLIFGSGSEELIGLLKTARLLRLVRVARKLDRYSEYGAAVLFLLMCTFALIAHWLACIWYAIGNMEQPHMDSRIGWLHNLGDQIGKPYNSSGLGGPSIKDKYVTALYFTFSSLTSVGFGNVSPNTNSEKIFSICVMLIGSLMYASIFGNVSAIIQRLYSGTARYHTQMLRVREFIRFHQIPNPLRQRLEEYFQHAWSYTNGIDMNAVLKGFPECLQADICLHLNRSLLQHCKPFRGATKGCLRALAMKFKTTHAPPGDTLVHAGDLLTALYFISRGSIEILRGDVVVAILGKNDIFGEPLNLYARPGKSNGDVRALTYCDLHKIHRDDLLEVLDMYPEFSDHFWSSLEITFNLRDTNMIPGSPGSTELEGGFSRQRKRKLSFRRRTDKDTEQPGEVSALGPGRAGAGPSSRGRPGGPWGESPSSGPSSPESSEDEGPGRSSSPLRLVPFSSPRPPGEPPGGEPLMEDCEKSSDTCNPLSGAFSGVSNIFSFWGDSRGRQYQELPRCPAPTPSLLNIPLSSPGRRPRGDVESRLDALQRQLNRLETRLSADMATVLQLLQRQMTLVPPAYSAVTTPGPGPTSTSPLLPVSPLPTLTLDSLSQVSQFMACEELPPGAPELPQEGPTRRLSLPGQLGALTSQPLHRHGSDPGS
row,Compound,"hERG current change (%, negative = inhibition) at 10uM [%]"
1,CCOC(=O)c1cnc2cc(C)nn2c1-c1ccccc1,3.92
2,COc1ccc(N2CC(C(=O)N3CCC(c4nc5ccccc5[nH]4)CC3)CC2=O)cc1 (centres unmarked),-19.3
3,Cc1ncsc1C(=O)N1N=C2/C(=C/c3ccc(N4CCOCC4)cc3)CCCC2C1c1ccc(N2CCOCC2)cc1 (centres unmarked),-5.31
4,O=C(NC1CCCC1)c1ccc(CS(=O)(=O)c2ccc(Br)cc2)o1,-26.8
5,CCOCCOC(=O)C(C)Oc1ccc(Oc2nc(Cl)ccc2Cl)cc1 (centres unmarked),16.8
6,COC(=O)c1c(C)oc2ccc(N(C(=O)Oc3ccccc3)S(=O)(=O)c3ccc(Cl)c([N+](=O)[O-])c3)cc12,14.6
7,CCOCCCn1c(C)nc2c(c1=O)c1nc3ccccc3nc1n2-c1ccc2c(c1)OCCO2,9.85
8,COCCn1c(SCC(=O)Nc2ccc(F)cc2)nc2ccccc2c1=O,-48.6
9,CCCC(=O)Nc1nnc(C2CCCO2)s1 (centres unmarked),8.76
10,COC(=O)CCC(=O)Nc1ccc(S(=O)(=O)N2CCc3ccccc32)cc1,12.9
11,Cc1c(Cl)cccc1NC(=S)NCc1cccn1C,7.23
12,Cc1cc(C)nc(/N=C(\NC(=O)C(C)(C)C)Nc2ccc(F)cc2)n1,23.5
13,COc1cc(NC(=O)CSc2nnc(C)s2)cc(OC)c1,11.9
14,O=C(Nc1ccc(Cl)cc1C(=O)c1ccccc1)c1ccc(Br)o1,24.5
15,Cn1nc(-c2ccc(C(=O)N3CCN(CCO)CC3)cc2)c2ccccc2c1=O,-6.52
16,CC(Oc1ccc(Cl)cc1Cl)c1nc(-c2ccc(NC(=O)c3ccccn3)cc2)no1 (centres unmarked),10.4
17,COc1ccc(OCC(=O)N(C)Cc2ccccc2)cc1,0.218
18,O=C(Nc1ccnn1C1CCN(C(=O)c2cnsn2)CC1)c1cccc(F)c1,-8.92
19,COc1ccc(C2CC(=O)c3cnc(NC(=O)c4cc(OC)cc(OC)c4)nc3C2)cc1 (centres unmarked),-23.1
20,CC(=O)c1ccccc1OCC(O)CN1CCN(C(c2ccccc2)c2ccccc2)CC1 (centres unmarked),-66.7
21,O=C(COC(=O)c1ccco1)c1ccc2ccccc2c1,9.8
22,CCn1c(=O)c2sccc2n(CC(=O)NC2CCCC2)c1=O,15

row,Compound,"hERG current change (%, negative = inhibition) at 10uM [%]"
1,O=C(COc1ccccc1Cl)NCC(c1cccs1)N1CCOCC1 (centres unmarked),-27
2,COC(=O)c1ccc2c(=O)[nH]c(CN3c4ccccc4CC3C)nc2c1 (centres unmarked),-10.2
3,Cc1cc(C)nc(SCC(=O)c2ccc(Cl)cc2)n1,2.14
4,NS(=O)(=O)c1ccc(CCNC(=O)COC(=O)/C=C/c2ccc(Cl)cc2)cc1,-9
5,COC(=O)c1ccc(C)c(NC(=O)CN(c2ccccc2)S(=O)(=O)N(C)C)c1,16.3
6,CCCN(CCC)C(=O)CC(c1ccccc1)c1cc(Br)ccc1O (centres unmarked),8.47
7,CCN(CC)S(=O)(=O)c1ccc(C)c(NC(=O)CN2C(=O)NC3(CCCC3)C2=O)c1,10.9
8,COc1ccc(CNS(=O)(=O)c2cc3c4c(c2)C(C)C(=O)N4CCC3)cc1 (centres unmarked),-11.4
9,O=C(COc1ccccc1[N+](=O)[O-])N/N=C/c1ccccn1,10.5
10,Cc1sc2ncnc(N(C)Cc3ccco3)c2c1C,-4.64
11,CC(=O)NNc1ccc(C(F)(F)F)cc1[N+](=O)[O-],9.46
12,COc1ccccc1-c1nc(S(=O)(=O)c2ccc(Cl)cc2)c(N(C)C)o1,12.7
13,CCCc1ccc(OCC(=O)NNC(=S)NC(=O)c2ccco2)cc1,8.34
14,COC(=O)c1ccc(C2C(Oc3ccccc3C)C(=O)N2CCc2ccc(OC)c(OC)c2)cc1 (centres unmarked),5.14
15,O=C(NCCN1CCOCC1)c1cccc(S(=O)(=O)Nc2ccc(Br)cc2)c1,-20.4
16,Cc1cnc[nH]1,-2.65
17,Cn1cc(/C=C(\NC(=O)c2ccccc2Cl)C(=O)NCCN2CCOCC2)c2ccccc21,-30
18,O=C(/C=C/c1ccc2c(c1)OCO2)Nc1nc(-c2ccccc2)cs1,8.74
19,Cc1cccc(C(=O)NC2CCN(CC(=O)Nc3ccc4c(c3)OCO4)CC2)c1,-57.7
20,Cc1ccccc1CCNC(=O)Cn1ccc2cc(S(=O)(=O)N3CCCC3)ccc21,5.11
21,CCCC(=O)O/N=C(\c1ccccc1)c1ccncc1,13.7
22,COc1ccc(O)c(CN2CCN(CCCc3ccccc3)C(CCO)C2)c1 (centres unmarked),-68.2
